Experimental data as given in patent publication US20250064836A1 (priority 2023, published 2025).
Where two headings read alike, the source gives them in different places.

System: C. difficile R20291

Molecule | colonization of R20291 (CFUs) (in vivo) | histopathological scores in colonic tissues (in vivo) | histopathological scores in colonic tissues (CDI with R20291, mice) | colonization of R20291 (CFUs) (CDI with R20291, mice, cecal content)
C[C@@H](O[C@H]1OCCN(Cc2n[nH]c(=O)[nH]2)[C@H]1c1ccc(F)cc1)c1cc(C(F)(F)F)cc(C(F)(F)F)c1 [aprepitant] | reduced colonization | reduced histopathological scores |  | 
NCCCC[C@H](NC(=O)[C@@H](Cc1cc(Br)c(O)c(Br)c1)NC(=O)N1CCC(N2Cc3ccccc3NC2=O)CC1)C(=O)N1CCN(c2ccncc2)CC1 [olcegepant] | reduced colonization | reduced histopathological scores |  | 
fremanezumab |  |  | reduced histopathological scores | reduced colonization
